How the values were obtained:
[1] = Activated activatable antibody within subjects' tumors (Western blot); type: in vivo; conditions: human subjects, 4 to 8 mg/kg (AIBW), 11 tumor tissue samples
[2] = Pharmacokinetics of total and intact activatable antibody and DM4 metabolites in serum of human subjects

B1: Combination 55 (conjugate)
heavy: QITLKESGPTLVKPTQTLTLTCTFSGFSLSTYGMGVGWIRQPPGKALEWLANIWWSEDKHYSPSLKSRLTITKDTSKNQVVLTITNVDPVDTATYYCVQIDYGNDYAFTYWGQGTLVTVSS[skipping human IgG1 constant region]
light: QGQSGQGLCHPAVLSAWESCSSGGGSSGGSAVGLLAPPGGLSGRSDNHGGSDIVMTQSPLSLPVTPGEPASISCRSSKSLLHSNGITYLYWYLQKPGQSPQLLIYQMSNLASGVPDRFSGSGSGTDFTLKISRVEAEDVGVYYCAQNLELPYTFGQGTKLEIKRTVAAPSVFIFPPSDEQLKSGTASVVCLLNNFYPREAKVQWKVDNALQSGNSQESVTEQDSKDSTYSLSSTLTLSKADYEKHKVYACEVTHQGLSSPVTKSFNRGEC
modifications: DM4 via SPDB linker
In the case of B1, the “Amount of intratumoral activated activatable antibody versus dosage” value [1] is reported as “increased with the initial dosage”, the “Form of anti-CD166 activatable antibody circulating in the serum” value [2] is reported as “predominantly in an intact form” and the “Ratio of intact to total anti-CD166 activatable antibody for Dose 1 AUC0-tau and Cmax” value [2] is reported as “approximately consistent”. For the same molecule, the “Accumulation ratio of minimum plasma concentration (Cmin) (Dose 3:Dose 1) for intact anti-CD166 activatable antibody” value ([2]; multiple dosing) was ≤ 1.34, the “Trend of Cmin accumulation ratio with dose” value ([2]; multiple dosing) was “did not trend with dose” and the “DM4-Me circulating, as share of total anti-CD166 activatable antibody” value ([2]; serum) was < 1.9 mol %. The “Free DM4 circulating, as share of total anti-CD166 activatable antibody” value ([2]; serum) was < 1.9 mol % and the “Intact and total anti-CD166 activatable antibody exposure (AUC0-tau and Cmax) versus dose” value ([2]; single dose) was “generally increased with increasing dose”.
